Source: publication PMC12820563, “FoxP3 forms a head-to-head dimer in vivo and stabilizes its multimerization on adjacent microsatellites”
This is one part of the list.

Molecular target: T1, MBP-FoxP1dN (Mus musculus, UniProt P58462 326-579)
T1 sequence: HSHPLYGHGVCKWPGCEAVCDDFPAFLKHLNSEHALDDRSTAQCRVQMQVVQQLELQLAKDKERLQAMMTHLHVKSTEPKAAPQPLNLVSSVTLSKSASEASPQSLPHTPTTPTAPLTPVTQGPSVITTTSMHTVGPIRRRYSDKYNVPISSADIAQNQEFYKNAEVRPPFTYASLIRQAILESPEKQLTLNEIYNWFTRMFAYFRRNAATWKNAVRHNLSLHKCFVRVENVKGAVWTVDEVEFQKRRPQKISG
Assay: PD-seq (MBP pull-down with sequencing); 20 mM Tris-HCl pH 7.5, 100 mM NaCl, 1.5 mM MgCl2, 0.4 uM protein, 0.1 uM dsDNA library, 30 min, room temperature, amylose pull-down; high values mean tight binding
Conditions: protein: recombinant; tags: His6-MBP; chain copies: 2; dsDNA, one strand shown
Outline: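 A fragment of mouse FoxP3 or FoxP1 without its N-terminus, carrying a His6-MBP tag and produced in E. coli, was combined at 0.4 µM with a 0.1 µM degenerate double-stranded DNA library filled in with Klenow. The mixture sat for 30 min at room temperature in Tris pH 7.5 buffer containing NaCl and MgCl2. Protein–DNA complexes were captured on amylose resin, washed three times, and the DNA was freed with proteinase K, barcoded by PCR and sequenced on Illumina. Binding is expressed as reads-per-million enrichment of pull-down over input, with replicates pooled.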

Sequence | binding signal
GATGATTGTTCTCCCAGCTGATGAATTCGTGTCCTCGAGTAAACAAATTTTCCTAATCTTTCTGTTCAAGCGCCATCTAC | 0.835 RPM ratio (pull-down/input)
GATGATTGTTCTCCCAGCTGATGAATTTACATACTCGAGTAAACAAATTTTCCTAATCTTTCTGTTCAAGCGCCATCTAC | 1.53 RPM ratio (pull-down/input)
GATGATTGTTCTCCCAGCTGATGAATTTGTATCATCGAGTAAACAAATTTTCCTAATCTTTCTGTTCAAGCGCCATCTAC | 1.51 RPM ratio (pull-down/input)
GATGATTGTTCTCCCAGCTGATGAATTTCTGTCATCGAGTAAACAAATTTTCCTAATCTTTCTGTTCAAGCGCCATCTAC | 1.15 RPM ratio (pull-down/input)
GATGATTGTTCTCCCAGCTGATGAATTGTATATTTCGAGTAAACAAATTTTCCTAATCTTTCTGTTCAAGCGCCATCTAC | 1.52 RPM ratio (pull-down/input)
GATGATTGTTCTCCCAGCTGATGAATTGCAAAGGTCGAGTAAACAAATTTTCCTAATCTTTCTGTTCAAGCGCCATCTAC | 1.04 RPM ratio (pull-down/input)
GATGATTGTTCTCCCAGCTGATGAATTACTCTTGTCGAGTAAACAAATTTTCCTAATCTTTCTGTTCAAGCGCCATCTAC | 0.971 RPM ratio (pull-down/input)
GATGATTGTTCTCCCAGCTGATGAATTTCATCATTCGAGTAAACAAATTTTCCTAATCTTTCTGTTCAAGCGCCATCTAC | 0.911 RPM ratio (pull-down/input)
GATGATTGTTCTCCCAGCTGATGAATTGGTCTCATCGAGTAAACAAATTTTCCTAATCTTTCTGTTCAAGCGCCATCTAC | 0.97 RPM ratio (pull-down/input)
GATGATTGTTCTCCCAGCTGATGAATTACCTACGTCGAGTAAACAAATTTTCCTAATCTTTCTGTTCAAGCGCCATCTAC | 0.914 RPM ratio (pull-down/input)
GATGATTGTTCTCCCAGCTGATGAATTAAAACGATCGAGTAAACAAATTTTCCTAATCTTTCTGTTCAAGCGCCATCTAC | 0.959 RPM ratio (pull-down/input)
GATGATTGTTCTCCCAGCTGATGAATTCTCCGTCTCGAGTAAACAAATTTTCCTAATCTTTCTGTTCAAGCGCCATCTAC | 0.849 RPM ratio (pull-down/input)
GATGATTGTTCTCCCAGCTGATGAATTCGCTCAATCGAGTAAACAAATTTTCCTAATCTTTCTGTTCAAGCGCCATCTAC | 0.977 RPM ratio (pull-down/input)
GATGATTGTTCTCCCAGCTGATGAATTTAACTTTTCGAGTAAACAAATTTTCCTAATCTTTCTGTTCAAGCGCCATCTAC | 0.855 RPM ratio (pull-down/input)
GATGATTGTTCTCCCAGCTGATGAATTTGCTGGCTCGAGTAAACAAATTTTCCTAATCTTTCTGTTCAAGCGCCATCTAC | 0.872 RPM ratio (pull-down/input)
GATGATTGTTCTCCCAGCTGATGAATTAGCGTAATCGAGTAAACAAATTTTCCTAATCTTTCTGTTCAAGCGCCATCTAC | 1.41 RPM ratio (pull-down/input)
GATGATTGTTCTCCCAGCTGATGAATTTTTATCTTCGAGTAAACAAATTTTCCTAATCTTTCTGTTCAAGCGCCATCTAC | 1.07 RPM ratio (pull-down/input)
GATGATTGTTCTCCCAGCTGATGAATTCCGACGATCGAGTAAACAAATTTTCCTAATCTTTCTGTTCAAGCGCCATCTAC | 0.781 RPM ratio (pull-down/input)
GATGATTGTTCTCCCAGCTGATGAATTTGCTGGATCGAGTAAACAAATTTTCCTAATCTTTCTGTTCAAGCGCCATCTAC | 0.925 RPM ratio (pull-down/input)
GATGATTGTTCTCCCAGCTGATGAATTACTATCGTCGAGTAAACAAATTTTCCTAATCTTTCTGTTCAAGCGCCATCTAC | 1.05 RPM ratio (pull-down/input)

Sequence | binding signal
GATGATTGTTCTCCCAGCTGATGAATTTGCAGAGTCGAGTAAACAAATTTTCCTAATCTTTCTGTTCAAGCGCCATCTAC | 0.839 RPM ratio (pull-down/input)
GATGATTGTTCTCCCAGCTGATGAATTGAAGGACTCGAGTAAACAAATTTTCCTAATCTTTCTGTTCAAGCGCCATCTAC | 0.81 RPM ratio (pull-down/input)
GATGATTGTTCTCCCAGCTGATGAATTATTCCGATCGAGTAAACAAATTTTCCTAATCTTTCTGTTCAAGCGCCATCTAC | 1.02 RPM ratio (pull-down/input)
GATGATTGTTCTCCCAGCTGATGAATTTAGAGTCTCGAGTAAACAAATTTTCCTAATCTTTCTGTTCAAGCGCCATCTAC | 0.902 RPM ratio (pull-down/input)
GATGATTGTTCTCCCAGCTGATGAATTTCAGAGCTCGAGTAAACAAATTTTCCTAATCTTTCTGTTCAAGCGCCATCTAC | 0.714 RPM ratio (pull-down/input)
GATGATTGTTCTCCCAGCTGATGAATTCGAGACCTCGAGTAAACAAATTTTCCTAATCTTTCTGTTCAAGCGCCATCTAC | 0.705 RPM ratio (pull-down/input)
GATGATTGTTCTCCCAGCTGATGAATTTGATTATTCGAGTAAACAAATTTTCCTAATCTTTCTGTTCAAGCGCCATCTAC | 1.2 RPM ratio (pull-down/input)
GATGATTGTTCTCCCAGCTGATGAATTGCCGTGATCGAGTAAACAAATTTTCCTAATCTTTCTGTTCAAGCGCCATCTAC | 0.988 RPM ratio (pull-down/input)
GATGATTGTTCTCCCAGCTGATGAATTTCTACGCTCGAGTAAACAAATTTTCCTAATCTTTCTGTTCAAGCGCCATCTAC | 0.824 RPM ratio (pull-down/input)
GATGATTGTTCTCCCAGCTGATGAATTTTCCTTATCGAGTAAACAAATTTTCCTAATCTTTCTGTTCAAGCGCCATCTAC | 0.987 RPM ratio (pull-down/input)
GATGATTGTTCTCCCAGCTGATGAATTATCGGACTCGAGTAAACAAATTTTCCTAATCTTTCTGTTCAAGCGCCATCTAC | 0.894 RPM ratio (pull-down/input)
GATGATTGTTCTCCCAGCTGATGAATTTCCGATATCGAGTAAACAAATTTTCCTAATCTTTCTGTTCAAGCGCCATCTAC | 0.949 RPM ratio (pull-down/input)
GATGATTGTTCTCCCAGCTGATGAATTCTCGGGCTCGAGTAAACAAATTTTCCTAATCTTTCTGTTCAAGCGCCATCTAC | 0.757 RPM ratio (pull-down/input)
GATGATTGTTCTCCCAGCTGATGAATTAGTCCCTTCGAGTAAACAAATTTTCCTAATCTTTCTGTTCAAGCGCCATCTAC | 0.884 RPM ratio (pull-down/input)
GATGATTGTTCTCCCAGCTGATGAATTCGTTCTCTCGAGTAAACAAATTTTCCTAATCTTTCTGTTCAAGCGCCATCTAC | 0.855 RPM ratio (pull-down/input)
GATGATTGTTCTCCCAGCTGATGAATTAGTTATTTCGAGTAAACAAATTTTCCTAATCTTTCTGTTCAAGCGCCATCTAC | 1.29 RPM ratio (pull-down/input)
GATGATTGTTCTCCCAGCTGATGAATTCTGAGGGTCGAGTAAACAAATTTTCCTAATCTTTCTGTTCAAGCGCCATCTAC | 0.697 RPM ratio (pull-down/input)
GATGATTGTTCTCCCAGCTGATGAATTCGGGACGTCGAGTAAACAAATTTTCCTAATCTTTCTGTTCAAGCGCCATCTAC | 0.836 RPM ratio (pull-down/input)
GATGATTGTTCTCCCAGCTGATGAATTTACTAAGTCGAGTAAACAAATTTTCCTAATCTTTCTGTTCAAGCGCCATCTAC | 1.29 RPM ratio (pull-down/input)
GATGATTGTTCTCCCAGCTGATGAATTAGGTCCTTCGAGTAAACAAATTTTCCTAATCTTTCTGTTCAAGCGCCATCTAC | 0.924 RPM ratio (pull-down/input)
